The whole screen tested about 420,000 compounds, of which about 64,000 (15%) were called active. The inconclusive results got no clear call from the source; some entries with a clear call stand among them for comparison. Calls follow the shape of the dose curve; as a rule, active = well fitted inhibition curve with a large enough effect; inconclusive = small, poorly fitted or top-dose-only effect; inactive = flat fitted curve, though single readings scatter. No potency is given beside an inconclusive call; the fits are too rough.
Assay: qHTS for Inhibitors of human tyrosyl-DNA phosphodiesterase 1 (TDP1): qHTS in cells in absence of CPT; also: nearly all actives have a fitted effect of over 55% in size
Details: DT40 Tdp1-/- hTDP1 cells, no CPT, ATP luminescence, 48 h; activity change, negative = growth inhibition: at 46.2 µM (top of the series) unless noted
Procedure, shortened: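 No-CPT arm: Tdp1-/-;hTDP1 DT40 cells (400/well) plus compounds, incubated ≥48 hr at 37 °C. Readout CellTiter-Glo luminescence.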
% is scaled to controls: 0 for no effect and ±100 for the full control effect; potency is read from the fitted curve at half-maximal effect; tags tell the direction and shape of the fitted curve.

Structure (SMILES) | Potency | activity change, negative = growth inhibition
Cn1c(=O)n(C)c2cc(NS(=O)(=O)c3ccc(Br)s3)ccc21 | inconclusive [inhibitor, partial curve] | –
COC(=O)c1ccc2nc(C3CCCCC3)c(Cc3cccc(F)c3)n2c1 | inconclusive [inhibitor, single point] | –
COc1ccc(Cn2c(SCC(=O)N3CCN(c4ccc(F)cc4)CC3)nc3ccccc32)cc1 | active: 20.6 µM | –
CC(C)(C)c1cc(NC(=O)COC(=O)c2ccccc2O)n(-c2ccccc2)n1 | inconclusive [inhibitor, single point] | –
COc1cccc(C2C(C(=O)c3ccc(C)o3)=C(O)C(=O)N2c2cc(C)on2)c1 (stereo unspecified) | inconclusive [inhibitor, single point] | –
Cc1ccc2scc(N3CCCCC3C)c(=O)c2c1 (stereo unspecified) | inactive | –
C[C@@H](CN1C2=NC[C@H](Cc3ccccc3)N2C[C@H]1Cc1ccc(O)cc1)NC(=O)CCC1CCCCC1 | active: 11.6 µM | –
CCCc1nc2c(C)ccc(C)c2c(N)c1CC | inconclusive [inhibitor, single point] | –
Cc1ccccc1CNC(=O)CN1C(=O)CCCc2ccccc21 | inactive | –
CC(C)Cc1nc2sc3c(c2c(=O)n1N)CC(C)(C)OC3 | active: 10.3 µM | –
Cc1ccc(C2CC(=O)N(Cc3ccc(F)cc3)c3c2c(C)nn3-c2nc(C)cc(C)n2)cc1 (stereo unspecified) | inconclusive [inhibitor, single point] | –
COc1cc2sc(-c3ccccc3OC)c(-c3ccc(O)cc3)c2cc1OC | inconclusive [inhibitor, single point] | –
Cc1cccn2c(=O)nc(SCC(=O)N3N=C(c4cccs4)CC3c3ccc(F)cc3)nc12 (stereo unspecified) | inconclusive [inhibitor, single point] | –
N[C@H](Cc1c[nH]c2ccccc12)C(=O)O | inactive | –
Cc1cc(C(=O)OCC(N)=O)c(C)n1-c1ccccc1 | inconclusive [inhibitor, single point] | –
CC(NC(=O)C1CCN(Cc2ccccc2)CC1)c1cccc2ccccc12 (stereo unspecified) | inconclusive [inhibitor, single point] | –
COc1ccc(/C=C/c2ccnc3ccccc23)cc1OC | active: 12.6 µM | –
COc1ccc(F)c(CN2CCC3(CCC(CNC(=O)c4cc(C)nn4C)O3)CC2)c1 (stereo unspecified) | active: 14.6 µM | –
COc1ccc(CCC2(C)NC(=O)N(C(C)C(=O)N3c4ccccc4CC3C)C2=O)cc1 (stereo unspecified) | inconclusive [inhibitor, single point] | –
Cc1nn(C)c(C)c1/C=N/NC(=O)CCn1nc(C)c([N+](=O)[O-])c1C | inconclusive [inhibitor, full curve] | –
Cn1cc(/C=C2/SC(=O)N(CC(=O)Nc3ccc4c(c3)OCO4)C2=O)c2ccccc21 | inconclusive [inhibitor, single point] | –
C=CCn1c(=O)c(C(=O)Nc2ccccc2C)c(O)c2ccccc21 | inconclusive [inhibitor, single point] | –
O=C(O)C1CC=CCC1C(=O)N1CCN(c2nc(-c3ccccc3)c3ccccc3n2)CC1 (stereo unspecified) | inconclusive [inhibitor, single point] | –
O=C(O)c1ccc(N=Nc2c(O)[nH]c3cc(Cl)ccc23)cc1 | inconclusive [inhibitor, partial curve] | –

Structure (SMILES) | Potency | activity change, negative = growth inhibition
COc1ccccc1CNc1nc(NCc2cccs2)nc2ccsc12 | active: 16.4 µM | –
c1ccc(C2c3[nH]c4ccccc4c3CCN2Cc2cccn2-c2cccnc2)nc1 (stereo unspecified) | active: 5.8 µM | –
Cc1ccc(CNC(=O)/C=C/c2ccc(S(=O)(=O)NCc3ccco3)cc2)cc1 | inconclusive [inhibitor, single point] | –
O=C(COc1ccccc1)N(Cc1cccnc1)c1nc2c(F)cc(F)cc2s1 | inconclusive [inhibitor, partial curve, poor fit] | –
CCN(CC)CCNC(=O)c1ccc(NC(=O)c2ccc(Cl)c(S(=O)(=O)N3CCCCCC3)c2)cc1 | inconclusive [inhibitor, single point] | –
Cc1sc(C2C(C#N)=C(N)N(c3ccc(Cl)cc3)C3=C2C(=O)CCC3)cc1CN1CCOCC1 (stereo unspecified) | inconclusive [inhibitor, single point] | –
CC[C@]12c3[nH]c4ccccc4c3CCN1C(=O)C(CC(=O)NC/C=C(\C)CCC=C(C)C)C[C@@H]2C(=O)N1CCN(C(=O)c2ccco2)CC1 (stereo partly specified) | inconclusive [inhibitor, single point] | –
O=C(Nc1ccc(S(=O)(=O)N2CCCCC2)cc1)c1ccccc1Cl | active: 25.9 µM | –
Cc1ccsc1CN(C(=O)COc1ccccc1Cl)C1CCS(=O)(=O)C1 (stereo unspecified) | inconclusive [inhibitor, partial curve, poor fit] | –
O=[N+]([O-])c1nn(-c2ccc(Cl)cc2)n(O)c1=NCc1cccnc1 | active: 10.3 µM | –
COc1ccc(NC(=O)CN(C)C(=O)c2ccc(NS(=O)(=O)c3cccc([N+](=O)[O-])c3)cc2)cc1 | inactive | –
CCn1cc(C(=O)NCc2cccs2)c(=O)c2ccc(C)nc21 | inconclusive [inhibitor, single point] | –
CC1(C(=O)NCc2cccc3ccccc23)CCN1C(=O)C1(c2ccccc2)CCCC1 (stereo unspecified) | active: 20.6 µM | –
CCc1ccccc1NC(=O)CN(c1ccccc1OC)S(=O)(=O)c1ccc(C)cc1 | active: 18.4 µM | –
Cc1[nH]c2ccccc2c(=O)c1CN1CCCCC1 | inactive | –
Cc1cccc(OCC(=O)O/N=C(\N)c2ccncc2)c1 | inactive | –
O=C(CSc1cccc[n+]1[O-])Nc1ccc([N+](=O)[O-])cc1Cl | inconclusive [inhibitor, single point] | –
O=C(NCc1ccccc1)C1CCC(CNS(=O)(=O)c2cccs2)CC1 (stereo unspecified) | inactive | –
CCCNC(=O)c1csc(Nc2cccc3ccccc23)n1 | inconclusive [inhibitor, single point] | –
Cc1ccc2cc(CN(CC3CCCO3)C(=O)Nc3ccccc3F)c3nnnn3c2c1 (stereo unspecified) | inconclusive [inhibitor, single point] | –
CNC(=O)COc1ccccc1C(=O)Nc1ccc2c(c1)oc1ccccc12 | inconclusive [inhibitor, single point] | –
Cn1cc(/C=C/C(=O)N2CCCC(C(=O)c3ccc(C(C)(C)C)cc3)C2)cn1 (stereo unspecified) | inconclusive [inhibitor, single point] | –
OC(c1ccc(Cl)c(F)c1)c1ncc(-c2cccc3ccccc23)[nH]1 (stereo unspecified) | inconclusive [inhibitor, single point] | –
C=C1C(=O)O[C@@H]2C[C@@H](C)[C@@H]3C=CC(=O)[C@@]3(C)[C@@H](OC(C)=O)[C@H]12 | active: 0.651 µM | –

Structure (SMILES) | Potency | activity change, negative = growth inhibition
CCOC(=O)[C@H]1[C@H]2COc3cc(OC)ccc3[C@@H]2N2C(=O)CN(CCc3c[nH]c4ccccc34)C(=O)[C@@]12C | inconclusive [inhibitor, single point] | –
CCC(C(=O)NC1CCCCC1)n1c(SCc2ccccc2F)nc2ccncc21 (stereo unspecified) | inconclusive [inhibitor, single point] | –
COCCNC(=S)N/N=C/c1ccc2c(c1)OCCO2 | inactive | –
CN(C(=O)CSc1nncn1C)C1CCCN(Cc2ccccc2F)C1 (stereo unspecified) | inactive | –
COc1ccc(C2C(=O)N(C3CCCCCC3)CC(=O)N2CCc2ccc(Cl)cc2)cc1OC (stereo unspecified) | active: 23.1 µM | –
Cc1nc(SCC(=O)Nc2ccc3c(c2)OCCO3)nc(C)c1C | inconclusive [inhibitor, partial curve] | –
O=C(CCc1ccccc1)Nc1nc2n(n1)C(c1ccc(Cl)cc1)CC(=O)N2 (stereo unspecified) | inactive | –
Cc1ccn2cc(-c3cccc(S(=O)(=O)N4CCCC4)c3)nc2c1 | active: 23.1 µM | –
NC(=O)c1c(NC(=O)Cc2ccccc2)sc2c1CCN(Cc1ccccc1)C2 | active: 13 µM | –
O=C1NC2(CCCCCC2)Cc2ccccc21 | inactive | –
COc1ccc(-c2ncccc2O)cc1 | inactive | –
CCOc1ccc(C(=O)COC(C)=O)cc1 | – | inconclusive: -12.7% [inhibitor]
CCOC(=O)c1ccc(NC(=O)CSc2nnc(CCc3ccc(C)o3)n2-c2ccccc2)cc1 | inconclusive [inhibitor, single point] | –
COc1ccc(Nc2nc3ccccc3nc2NS(=O)(=O)c2ccc(NC(C)=O)cc2)cc1 | inactive | –
COc1ccc(CSc2cccc3cccnc23)cc1[N+](=O)[O-] | active: 16.4 µM | –
CCS(=O)(=O)N1CCC(NC(=O)C(Cc2cccc(OC)c2OC)NC(C)=O)CC1 (stereo unspecified) | inactive | –
COc1ccc(-n2c(SCC(=O)NCC3CCCO3)nc3n[nH]c(C)c3c2=N)cc1 (stereo unspecified) | active: 18.4 µM | –
C=CCN1C(=O)C(=Cc2ccc3c(c2)CCC3)SC1=S | inconclusive [inhibitor, single point] | –
COc1ccc(C2CC(c3ccc(F)cc3)=NN2c2ccccc2)cc1OC (stereo unspecified) | inconclusive [inhibitor, single point] | –
Cc1ccccc1C(=O)Nc1cccc(NC(=O)c2ccc(C(C)(C)C)cc2)c1 | active: 5.8 µM | –
CSc1ncnc2c1ncn2CCCNCC(c1ccccc1)c1ccccc1 | active: 25.9 µM | –
CCc1ccc(NC(=O)CSc2ccc(-c3sc(-c4ccccc4)nc3C)nn2)cc1 | active: 11.6 µM | –
CCOc1cc(/C=N/NC(=O)c2cccc([N+](=O)[O-])c2)ccc1OS(=O)(=O)c1ccccc1 | active: 18.4 µM | –
